Assay results reported in PubChem BioAssay AID485364 (National Center for Advancing Translational Sciences (NCATS), 2010).
Hit rate of the full screen: of about 360,000 compounds, about 11,000 (3.1%) were called active. This list was built around the results that the source calls inconclusive (neither active nor inactive); the mix of calls is not that of the screen. The call rests on the fitted dose curve; in most records, active means well fitted inhibition curve with a large enough effect; inconclusive means small, poorly fitted or top-dose-only effect; inactive means no such curve, though single readings can be large or run the other way. No potency is given beside an inconclusive call; the fits are too rough.

What follows are compounds tested against Schistosoma mansoni thioredoxin glutathione reductase (TGR) (UniProt Q962Y6) (assay: qHTS Assay for the Inhibitors of Schistosoma Mansoni Peroxiredoxins). Details: purified TGR, DTNB reduction, TNB absorbance 405 nm; series mostly up to 114 µM.
Summary of the method: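 Kinetic colorimetric format: TGR-catalysed, NADPH-driven DTNB reduction monitored via TNB absorbance. Enzyme dispensed at 20 nM; compound exposure 15 min at room temperature before reaction start.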
Further: nearly all actives have a fitted effect of over 60% in size.
Potency means the concentration at half of the fitted maximal effect; tags describe the fitted curve by direction and shape.

SMILES | Potency
COc1ccc(OC)c(-c2csc(NC(=O)COC(=O)c3ccc(NC(=O)CC#N)cc3)n2)c1 | inactive
NC(=O)C1CCN(c2oc(-c3ccccc3F)nc2S(=O)(=O)c2ccc(Cl)cc2)CC1 | inconclusive [inhibitor, partial curve]
CC(C)N(C(=O)Cc1ccccc1[N+](=O)[O-])C(C)C | inactive
O=C(CCCNS(=O)(=O)c1cccs1)N1CCN(c2cccc(Cl)c2)CC1 | inconclusive [inhibitor, full curve]
Cc1ccc(C(=O)CSc2nc3ccc(C(=O)NCCN4CCCCC4)cc3c(=O)[nH]2)cc1 | inconclusive [inhibitor, partial curve]
NS(=O)(=O)c1ccc(CCNC(=O)CCC(=O)c2cccs2)cc1 | inconclusive [inhibitor, partial curve]
Cc1ccc(NC(=O)[C@H](NC(=O)[C@@H]2Cc3ccccc3CN2)c2ccccc2)cc1 | inactive
NC(=O)COc1ccc(NS(=O)(=O)Cc2ccccc2)cc1 | inconclusive [inhibitor, single point]
O=C1c2ccccc2C(=O)N1CCC(c1ccccc1)c1ccco1 (stereo unspecified) | inconclusive [inhibitor, single point]
COc1cccc(OC)c1C(=O)NC(=O)Oc1c(F)cccc1F | inactive
O=C(c1ccncc1)c1ccc(N2CCN(C3CC(=O)N(Cc4cccs4)C3=O)CC2)cc1 (stereo unspecified) | inconclusive [inhibitor, single point]
COC(=O)c1cc(C(=O)OC)cc(-n2c(C)cc(C(=O)COC(=O)CNS(=O)(=O)c3ccc(C)cc3)c2C)c1 | inactive
Cc1ccc(NC(=O)NNC(=O)c2cccs2)cc1 | inactive
OC1CN=C2CCCc3c2n(c2ccc(Cl)cc32)C1 (stereo unspecified) | inconclusive [inhibitor, partial curve]
COc1cc2c(cc1NC(=O)COC(=O)[C@@H](NS(=O)(=O)c1cccc(Cl)c1)C(C)C)oc1ccccc12 | inactive
Cc1cc(=S)cc(C)n1CCO | active: 14.1 µM
CC1CC(=O)N(CC(=O)NCc2ccco2)c2ccccc2S1 (stereo unspecified) | inconclusive [inhibitor, full curve]
Cc1ccc(NC(=S)NNC(=O)c2nnn(-c3ccccc3)c2C)cc1 | inactive
O=C(NCC1OCCc2ccccc21)c1ccco1 (stereo unspecified) | active: 31.6 µM
CNc1cc([N+](=O)[O-])ccc1OCc1ccccc1 | inactive
O=C(CNC(=O)c1ccc(-c2ccccc2)cc1)OCc1ccc(Br)cc1 | inactive
O=C(c1ccccn1)N1CC=C(c2ccccc2)CC1 | inconclusive [inhibitor, partial curve]
C=CCOC(=O)C1=C[C@@H](C2CCCCC2)C[C@@H](OCc2ccc(CO)cc2)O1 | inconclusive [inhibitor, full curve, poor fit]

SMILES | Potency
COC(=O)CCC(=O)OC1(C)C(=O)C=C2C=C(C3CC3)N(c3cccc(C#N)c3)C=C2C1=O (stereo unspecified) | inconclusive [inhibitor, single point]
Oc1ccccc1Nc1nc(-c2ccccc2O)nc2ccccc12 | inactive
COc1ccc(-c2oc3cccnc3c2C#CCO)cc1 | inconclusive [inhibitor, partial curve]
Cc1ccc(C)c2[nH]c(=O)c(C(c3nnnn3Cc3ccccc3)N3CCc4ccccc4C3)cc12 (stereo unspecified) | inconclusive [inhibitor, partial curve, poor fit]
COc1ccc(Cl)cc1NC(=O)CN1C(=O)CCS(=O)(=O)c2ccccc21 | active: 50.1 µM
CC(C)CNC(=O)CSc1ccc(S(=O)(=O)N2CCN(C)CC2)cn1 | inactive
CSc1nccn1C(=O)c1ccccc1[N+](=O)[O-] | inconclusive [inhibitor, partial curve]
Cc1cc(C)n(Cc2ccc(C(=O)N/N=C/c3ccc(-c4ccc([N+](=O)[O-])cc4)o3)o2)n1 | inconclusive [inhibitor, partial curve, poor fit]
COCCN(C(=O)CCc1nnc(Cc2c[nH]c3ccccc23)o1)C(C)C | active: 20 µM
O=C(N/N=C/c1ccc(N2CCOCC2)cc1)c1ccncc1 | inconclusive [inhibitor, partial curve]
Cc1ccccc1NS(=O)(=O)c1cc(C(=O)NCc2ccco2)ccc1C | inconclusive [inhibitor, partial curve]
CSc1nc2ccc(NC(=O)C3CC(=O)N(Cc4ccco4)C3)cc2s1 (stereo unspecified) | inconclusive [inhibitor, partial curve]
O=C(Cn1c(C(=O)N2CCN(C3CCCC3)CC2)cc2sccc21)c1ccccc1 | inconclusive [inhibitor, single point]
O=C1CN(C(=O)c2ccc(Br)o2)C(c2ccc(F)cc2)c2cc(Cl)ccc2N1 (stereo unspecified) | inconclusive [inhibitor, partial curve]
Fc1ccc(C(c2nnnn2C2CCCC2)N2CCN(Cc3ccccc3)CC2)cc1 (stereo unspecified) | inconclusive [inhibitor, partial curve]
O=C(Nc1ccc2c(c1)nc1n2CCN(Cc2ccccc2)C1)c1cccs1 | inconclusive [inhibitor, partial curve]
Cc1cccc(NC(=O)C(=O)NCCc2csc(-c3ccc(C(F)(F)F)cc3)n2)c1C | inconclusive [inhibitor, single point]
COc1ccc(Nc2nc(N)nc(CN3CCc4ccccc4C3)n2)cc1 | inconclusive [inhibitor, partial curve]
CC1=Nc2cc(C(=O)NC(C)C)ccc2Sc2ccc(C)cc21 | inactive
O=C1/C(=C/c2ccco2)CCc2ccccc21 | inconclusive [inhibitor, partial curve]
Cc1nc(=S)c2ccccc2[nH]1 | inactive
C#CCn1c(=NC(=O)CN2C(=O)CCC2=O)sc2cc(S(N)(=O)=O)ccc21 | inactive
CC(C(=O)N(C)C1CCS(=O)(=O)C1)N1C(=O)/C(=C/c2ccco2)SC1=S (stereo unspecified) | active: 25.1 µM
